Laboratory results reported in PubChem BioAssay AID1508624 (National Center for Advancing Translational Sciences (NCATS), 2021).
Hit rate of the full screen: of about 48,000 compounds, about 120 (0.25%) were called active. Not shown: some 4% with an inconclusive outcome. The call rests on the fitted dose curve; in most records, active means well fitted activation curve with a large enough effect; inconclusive means small, poorly fitted or top-dose-only effect, or another doubt; inactive means no such curve, though single readings can be large or run the other way. Only a part is listed here, and it is no random draw. The source gives no active or inactive call for entries shown without one.

test: Primary qHTS for Identification of Small Molecule Activators of Huntingtin-Antisense Promoter Activity; settings: HEK293 HTT-AS promoter firefly luciferase reporter, 24 h; activity change, positive = activation: at 57.5 µM (top of the series), percent change from vehicle, -100% = no light; further: nearly all actives have a fitted effect of over 55% in size
Outline: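 Firefly luciferase readout (Dual-Glo, 10 min RT) after 24 h, 37 °C compound exposure (final up to 57.5 uM) of HEK293 reporter cells cultured 24 h beforehand; PTC124 at 50 uM final as control inhibitor; activity scaled vehicle 0%, zero RLU -100%.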
Potency means the concentration at half of the fitted maximal effect.

| Structure (SMILES) | activity change, positive = activation | Potency |
| --- | --- | --- |
| CCOc1ccc(CNC(=O)c2cc3ccccn3n2)cc1OC | -14.2% |  |
| Cc1ccccc1CSc1nc2c(sc3ccccc32)c(=O)n1CCCOC(C)C | inactive: 12.8% |  |
| CCCn1ccc2c(OCC(=O)NCc3ccccc3Cl)cccc2c1=O | inactive: -10.1% |  |
| Cc1cccc(C)c1Nc1c(-c2ccsc2)nc2ccc(Cl)cn12 | inactive: -15.3% |  |
| COc1ccc(NC(=O)c2ccc3c(=O)n4nc(Nc5cccc(Cl)c5C)sc4nc3c2)cc1 | inactive: -1.21% |  |
| COc1cc2c(-c3ccccc3Cl)nc3c(c(C)nn3-c3ccccc3)c2cc1OC | -11.5% |  |
| Cc1ccc(NC(=O)CSc2nnc(COc3ccc(Cl)cc3)o2)c(C)c1 | -2.12% |  |
| Cn1c(=O)n(C)c2cc(N3CCCCC3)c(NC(=O)c3c(F)cccc3F)cc21 | -16.8% |  |
| O=C(CSc1nnc2[nH]c(=O)cc(-c3ccccc3)n12)Nc1cc(C(F)(F)F)ccc1Cl |  | active: 17.8 µM |
| CC(C)CN(CCNC(=O)c1cc(-c2ccc(Cl)s2)nc2ccccc12)CC(C)C | inactive: -9.2% |  |
| COc1ccc2c(C)c(CCC(=O)NCc3ccc(OC)c(OC)c3)c(=O)oc2c1 | -10.9% |  |
| COc1cccc(NC(=O)C2CCN(S(=O)(=O)c3cc(-c4noc(C)n4)ccc3C)CC2)c1 | inactive: -53.4% |  |
| Cc1ccc(NC(=O)c2ccc(F)c(S(=O)(=O)N3CCc4ccccc4C3)c2)cc1F | inactive: -27.9% |  |
| COc1ccccc1CNC(=O)c1cc2c(=O)n(Cc3cccs3)ccc2nc1C | -31.3% |  |
| COc1ccc(Cl)cc1S(=O)(=O)Nc1cccc(-c2ccc(N3CCOCC3)nn2)c1 | 13.1% |  |
| COc1cc2c(cc1OC)C(c1ccc(F)cc1)N(c1ccc(F)cc1)C(=O)C2 (stereo unspecified) | -2.72% |  |
| COc1ccc(NC(=O)c2cc3c(=O)n(Cc4ccco4)ccc3nc2C)c(OC)c1 | -9.09% |  |
| COc1cc(-c2nnc(SCC(=O)NC(C)C)o2)cc(OC)c1OC | 2.4% |  |
| CCOc1ccccc1NC(=O)CN1C(=O)C(=O)c2ccccc21 | inactive: -11.8% |  |
| CCCc1cc(=O)oc2cc(C)c3c(-c4ccccc4)c(C)oc3c12 | -13.9% |  |
| CC(NC(=O)c1cc2ccccn2n1)c1ccccc1 (stereo unspecified) | 4.68% |  |

| Structure (SMILES) | activity change, positive = activation | Potency |
| --- | --- | --- |
| COc1ccc(NC(=O)CC2C(=O)N(c3ccc(C)cc3)C(=O)N2C2CCCC2)cc1 (stereo unspecified) | -24.4% |  |
| Cc1cc(C)c(S(=O)(=O)Nc2ccc(-c3ccc(N4CCCCCC4)nn3)cc2)cc1C | 9.07% |  |
| CC(C)c1ccc(S(=O)(=O)N2CCC(n3c(C(F)(F)F)nc4cccnc43)CC2)cc1 | -8.56% |  |
| CC(NC(=O)C1CCN(S(=O)(=O)Cc2ccccc2)CC1)c1ccccc1 (stereo unspecified) | -5.05% |  |
| COc1cc2c(-c3cccc(Cl)c3)nc3c(c(C)nn3-c3ccccc3)c2cc1OC | -4.41% |  |
| COc1ccc(C2c3cc(OC)c(OC)cc3CC(=O)N2c2ccc(C)cc2)cc1 (stereo unspecified) | -22.6% |  |
| COc1ccccc1Nc1nc(-c2ccccc2F)nc2ccccc12 | inactive: -30.7% |  |
| Cc1ccccc1CNC(=O)c1cnc2sc(N3CCC(C)CC3)nn2c1=O | 10.7% |  |
| CC(C)(C)c1ccc(-c2nc(SCCOc3ccc(Cl)cc3)n3[nH]c(=O)cc3n2)cc1 | 0.494% |  |
| Clc1ccccc1N1CCN(Cc2nnc(-c3ccccc3)o2)CC1 | -15.8% |  |
| Cc1ccc(Cl)cc1-n1c(CCC(=O)O)ccc1-c1cccs1 | -1.13% |  |
| CCc1nn(CC(=O)NCc2ccc(OC)cc2OC)c(=O)c2cc3c(OC)cccc3n12 | -8.95% |  |
| CCOC(=O)c1ccc(NC(=O)CCc2c(C)n(CC)c3cc(-c4ccccc4OC)nn3c2=O)cc1 | inactive: -6.24% |  |
| Oc1cccc(-c2c3nc(c(-c4cccc(O)c4)c4ccc([nH]4)c(-c4cccc(O)c4)c4nc(c(-c5cccc(O)c5)c5ccc2[nH]5)CC4)C=C3)c1 | inactive: -26.9% |  |
| O=c1cc(-c2cccc3c2Sc2ccccc2S3)oc(N2CCOCC2)c1 | inactive: -24.3% |  |
| CCOc1cccc(C(=O)Nc2ccc(-c3nc4cc(C)cc(C)c4o3)cc2)c1 | -4.11% |  |
| Cc1cccc(OCCOCCn2c(-c3ccc(Cl)cc3)nc3ccccc3c2=O)c1C | 37.5% |  |
| Cc1ccc(C(=O)NCc2ccc3c(c2)CCN3C(=O)c2ccc(C)cc2)cc1 | inactive: -29% |  |
| Cc1cc(=O)n2c(C(=O)Nc3ccc(Br)cc3)c(C(=O)Nc3ccccc3)sc2n1 | -9.91% |  |
| Cc1ccc(-n2ncc3c(NC4CCCC4)ncnc32)cc1 | inactive: -51.6% |  |
| COc1ccc(C)cc1NC(=O)c1c(C(=O)Nc2cccc(C)c2C)sc2nc(C)cc(=O)n12 | -3.77% |  |

| Structure (SMILES) | activity change, positive = activation | Potency |
| --- | --- | --- |
| COc1cc2oc(=O)c(CC(=O)N3CCCCC3)c(C)c2cc1Cl | 10.2% |  |
| O=C(c1cccc(Br)c1)N1CCN(Cc2cc(=O)n3nc(-c4ccccc4)sc3n2)CC1 | 9.42% |  |
| Cc1cc(S(=O)(=O)Nc2ccc(-c3ccc(N4CCCCC4)nn3)cc2)c(C)cc1Cl | -5.66% |  |
| COc1ccc(C2C(=O)N(C3CCC(C)CC3)CC(=O)N2Cc2ccccc2Cl)cc1OC (stereo unspecified) | -14.5% |  |
| CC1CCN(c2nn3c(=O)c(C(=O)NCc4ccc(Cl)cc4)cnc3s2)CC1 | -3.32% |  |
| COc1ccc(CNC(=O)CCc2c(C)nn(-c3ccc(N4CCCCC4)nn3)c2C)c(OC)c1 | 11.5% |  |
| Cc1ccc(-n2ncc(C(=O)NCCCN3CCN(c4cccc(Cl)c4)CC3)c2-n2cccc2)cc1 | -13.2% |  |
| CCCCCCC[N+](CC)(CC)CCCCc1ccc(Cl)cc1 | inactive: -42.4% |  |
| COc1cc(C2C(=O)N(C3CCCCCC3)CC(=O)N2CCC2=CCCCC2)ccc1OC(C)C (stereo unspecified) | 3.16% |  |
| Cc1c(CCC(=O)NCCc2ccccc2)c(=O)oc2cc(O)ccc12 | -21% |  |
| COc1ccc(N2CCN(S(=O)(=O)c3ccc4oc(=O)c5ncn(C)c5c4c3)CC2)cc1 | 5.71% |  |
| Cc1nn(Cc2ccc(F)cc2)c(C)c1NC(=O)c1cc(CC(C)C)on1 | -40.5% |  |
| COCCOC(=O)c1c(C)n(S(=O)(=O)c2ccc(C)cc2)c2ccc(NS(=O)(=O)c3ccc(C)cc3)cc12 | -18.1% |  |
| CCOc1ccc(CC(=O)NCCc2csc(-c3ccc(C)cc3)n2)cc1 | inactive: -29.7% |  |
| O=S(=O)(Nc1cccc(-c2ccc(N3CCCC3)nn2)c1)c1ccccc1C(F)(F)F | -1.4% |  |
| COc1cccc(NC(=O)CCN2CCN(CCO)CC2)c1 | -2.9% |  |
| Cc1cc(-c2ccc(S(=O)(=O)Nc3cccc(Cl)c3C)cc2)on1 | -34.9% |  |
| CC(=O)c1cc(-c2ccccc2)n(CC(=O)NCc2ccccc2C)c1C | -11.7% |  |
| Cc1oc2c(cc(NS(=O)(=O)c3ccc(F)cc3)c3ccccc32)c1C(=O)OCc1ccccc1 | 3.55% |  |
